48 compounds from PubChem BioAssay AID1508623 (National Center for Advancing Translational Sciences (NCATS), 2021) can be followed below.

In all, about 48,000 compounds went through this assay and about 450 (0.94%) were called active. Inconclusive results (about 19%) are left out. Calls follow the shape of the dose curve; as a rule, active = well fitted inhibition curve with a large enough effect; inconclusive = small, poorly fitted or top-dose-only effect; inactive = no such curve, though single readings can be large or run the other way. This is one part of the list.
Potency is read from the fitted curve at half-maximal effect.

The assay is described as follows: Primary qHTS for Identification of Small Molecule Inhibitors of Huntingtin Promoter Activity. Also: nearly all actives have a fitted effect of over 50% in size. Particulars: HEK293 HTT promoter firefly luciferase reporter (activity 0% = vehicle and -100% = no light), 24 h; series mostly up to 57.5 µM; activity change, negative = inhibition: at the top concentration. In a few lines:
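Quantitative HTS used concentration series of up to 57.5 uM final on HEK293 luciferase reporter cells, 24 h at 37 degrees C. Readout was Dual-Glo firefly luminescence.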
A general note: In qHTS, concentration-response curves come from the screen itself.
On to `CCn1c(=O)c2cc(C(=O)NCCc3cc(OC)ccc3OC)sc2c2ccccc21`, for which the “activity change, negative = inhibition” value was inactive: -7.19%.
As for `CCCCN(CC)CCNC(=O)c1cc2c(=O)oc3ccc(C)cc3c2s1`, the “activity change, negative = inhibition” value was inactive: -1.71%.
For `Cc1ccc(-n2c(C)nc3c(cnn3-c3ccccc3C)c2=O)cc1F`, the “activity change, negative = inhibition” value is inactive: -11.1%.
For `CCc1ccc2oc(-c3ccc(NC(=O)c4ccc(OC)c(Br)c4)cc3)nc2c1`, the “activity change, negative = inhibition” value was inactive: 45.1%.
The same measure, in the same setting: with `O=C(NCc1cccc(F)c1)c1ccc(-n2cnc3cccnc32)cc1` the figure was inactive: -3.22%; with `Cn1cc(S(=O)(=O)c2ccccc2)c(=O)c2cc(F)c(N3CCN(c4ccccc4)CC3)cc21`, inactive: -16.7%.
The same measure, in the same setting: with `Cc1cccc(-n2c(-c3ccccc3)cn3c4c(=O)[nH]c(=O)n(C)c4nc23)c1` the figure was inactive: -2.34%; with `Cc1ccc(-c2cc(C(F)(F)F)n3nc(C(=O)Nc4ccc(Cl)c(C(F)(F)F)c4)cc3n2)cc1`, inactive: -2.82%.
The same measure, in the same setting: with `Cc1cc(C)c(Cn2c3ccccc3c3cnn(CC(=O)N4CCCCCC4)c(=O)c32)c(C)c1` the figure was inactive: -13.4%.
`Cc1cccc(C)c1OCC(=O)Nc1nc(-c2ccc(Br)cc2)ns1`: the “activity change, negative = inhibition” value was inactive: -2.56%.
Still for that read-out and setting: with `O=C(Cn1c(=O)n(-c2cccc(Cl)c2)c(=O)c2sc3ccccc3c21)N1CCCC1` the figure was inactive: -14.3%.
On the same count and under the same terms, with `CCOc1ccc(C(=O)Nc2c(C(=O)Nc3ccccc3F)oc3ccccc23)cc1OCC` the figure was inactive: -16.7%; with `O=S1(=O)c2ccccc2N(Cc2ccccc2)c2ccccc21`, inactive: -2.87%; with `CC(=O)c1ccc(NC(=O)c2c3c(nc4ccccc24)C(=O)N(C2CCCCC2)C3)cc1`, inactive: -21.9%.
Still for that read-out and setting: then `CCN(CC)CCCNC(=O)C1CCN(S(=O)(=O)CC)CC1`, with inactive: -16.6%; and `COC(=O)c1cc(C)nc2c1c(=O)nc(SCc1ccccc1F)n2C1CC1`, with inactive: -24.3%; and `O=C(Nc1cccc(Br)c1)N1CCC(CN2CCCCC2)CC1`, with inactive: 3.69%.
For `Cc1ccc(NC(=O)CSc2nc3ncccc3[nH]2)cc1F`, the “activity change, negative = inhibition” value was inactive: 5.57%.
Same read-out and setting: then `COc1ccc(OCCn2cc(C(=O)C3CCCCC3)c3ccccc32)cc1`, with inactive: -27.6%; and `COc1cccc(N2CCN(C(=O)c3cnn(C(C)(C)C)c3C3CCN(C(=O)OC(C)(C)C)CC3)CC2)c1`, with inactive: -19.2%; and `O=C(NCc1ccc(Cl)cc1)C(=O)Nc1ccc(Br)cc1`, with inactive: -16.5% [at 11.5 µM].
On the same count and under the same terms, with `CCc1cccc(NC(=O)Cn2c(=O)n(Cc3ccccc3)c(=O)c3c2c2cc(OC)ccc2n3C)c1` the figure was inactive: -7.15%.
On the same count and under the same terms, then `CCc1ccccc1NC(=O)Cn1c(-c2nonc2N)nc2ccccc21`, with inactive: 3.16%; and `COC(=O)c1c(NC(=O)CCCOc2ccc(C(C)(C)C)cc2)sc2c1CCC(C)C2` (stereo not drawn), with inactive: -10%.
Turning to `CC1CCN(C(=O)CSc2nnc(-c3ccccc3Cl)o2)CC1`, the “activity change, negative = inhibition” value was inactive: 4.66%.
On the same count and under the same terms, with `COc1ccc(NC(=O)/C(C#N)=C/c2ccc(OCc3cc(=O)n4nc(C)sc4n3)cc2)cc1` the figure was inactive: -8.57%; with `CCN(C(=O)Cn1nc(Cc2cccnc2)c2ccccc2c1=O)c1ccccc1F`, inactive: -12%.
Same read-out and setting: then `OCCN1C[C@H](O)[C@@H](O)[C@H](O)[C@@H]1CO`, with inactive: 5.34%; and `Cc1cccc(NC(=O)C2CCN(c3nnc(-n4c(C)ccc4C)s3)CC2)c1C`, with inactive: -23.7%.
Same read-out and setting: then `Cc1ccc(S(=O)(=O)NCCc2cn3c(C)csc3n2)cc1`, with inactive: 0.132%; and `COc1ccc(NC(=O)CCNS(=O)(=O)c2cccc3nsnc23)cc1`, with inactive: -20.4%; and `Cc1ccc2nc(-c3cc(NC(=O)c4ccc5c(c4)OCCO5)ccc3Cl)oc2c1`, with inactive: -6.37%.
In the case of `Cc1ccc(N2CC(c3nc4ccccc4n3CCC3CCCCC3)CC2=O)cc1` (stereo not drawn), the “activity change, negative = inhibition” value was inactive: -4.71%.
Take `CCOc1ccc(C(CC(=O)O)N2Cc3ccccc3C2=O)cc1OC` (stereo not drawn): the “activity change, negative = inhibition” value was inactive: -4.73%.
Same read-out and setting: then `COc1ccc(C2c3c(oc4ccc(F)cc4c3=O)C(=O)N2Cc2ccc3c(c2)OCO3)cc1` (stereo not drawn), with inactive: 0.0356%; and `N#C/C(=C\c1ccccc1)c1nc(-c2cc3cc(Br)ccc3oc2=O)cs1`, with inactive: -28% [at 11.5 µM]; and `Cc1cccc(N(C)C(=O)c2cc(S(=O)(=O)N3CCCC3)cn2C)c1`, with inactive: -2.71%.
In the case of `COC(=O)c1ccccc1NC(=O)NCCc1c(C)nn(C)c1C`, the “activity change, negative = inhibition” value was inactive: -11.9%.
Still for that read-out and setting: with `COc1cccc(N2CCN(S(=O)(=O)c3ccc4[nH]c5c(c4c3)CCCC5)CC2)c1` the figure was inactive: -0.249%; with `O=C(Nc1ccccc1Br)C1CCCN(S(=O)(=O)c2cccc3nsnc23)C1` (stereo not drawn), inactive: -18.7%.
As for `Cc1cccc(NC(=O)c2c(NC(=O)C(F)(F)F)sc3c2CCCCC3)c1`, the Potency is active: 2000 nM.
`O=C(NCCS(=O)(=O)N1CCN(c2ccccc2)CC1)C(c1ccccc1)c1ccccc1`: the “activity change, negative = inhibition” value was inactive: -20%.
Same read-out and setting: with `O=C1CC(c2ccccc2)Cc2[nH]c(=O)c(C(=O)Nc3cccc(F)c3)cc21` (stereo not drawn) the figure was inactive: -27.4%.
On the same count and under the same terms, with `O=C(CSc1nc2c([nH]c3ccccc32)c(=O)n1-c1ccc(F)cc1)N1CCCCC1` the figure was inactive: -4.34%; with `CCc1ccc(OCC(=O)N(Cc2ccc(Cl)cc2)C2CCS(=O)(=O)C2)cc1` (stereo not drawn), inactive: -25.7%; with `Cn1c(NCCO)nc2c1c(=O)n(Cc1ccccc1Cl)c(=O)n2C`, inactive: 4.08%.
With `Cc1nnc(C(=O)NC(C)(C)c2nc(C(=O)NCc3ccc(F)cc3)c(O)c(=O)n2C)o1`, the activity change, negative = inhibition result is “inactive”.
Same read-out and setting: then `COc1cccc(Oc2nc3c(c(=O)n(Cc4ccccc4F)c(=O)n3C)n2C)c1`, with inactive: 34% [at 11.5 µM].
